# Data reported in the supplement of paper PMC8728848.
# This is one part of the list.
# B1: HPA (Helix pomatia), Q575S3 (protein)
# chain: MWAHLTGLLLICALSLSAAQRAQTGEIDCGSDSSWPKDPSDNPNRDNTREIVKHVTFSPQFCREPKVILSVTTLDAEHTKNLRYEARLKSVSPSGLSASCYSWHDGTIYRMKLSWLAVED
# Experiments:
# Experiment in all cases: glycan array binding signal (z-score within array); higher = stronger binding
# Details in all cases: glycan notation: IUPAC condensed, linker removed
# [1] = target: Gal(b1-3)Gal(b1-4)GlcNAc(b1-2)Man(a1-3)[Gal(b1-3)Gal(b1-4)GlcNAc(b1-2)Man(a1-6)]Man(b1-4)GlcNAc(b1-4)GlcNAc
# Outline: (§1)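 Columns mapping to the same glycan were averaged after glycan names were converted to IUPAC-condensed notation. The data come from 3228 arrays in the Consortium for Functional Glycomics database, limited to those with an available protein sequence. Binding is reported as a within-array Z-score averaged across arrays of one protein sequence and across linkers.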
# [2] = target: Gal(b1-3)GalNAc
# Outline: as §1
# [3] = target: Gal(b1-3)GalNAc(a1-3)[Fuc(a1-2)]Gal(b1-4)Glc
# Outline: as §1
# [4] = target: Gal(b1-3)GalNAc(a1-3)[Fuc(a1-2)]Gal(b1-4)GlcNAc
# Outline: as §1
# [5] = target: Gal(b1-3)GalNAc(b1-3)Gal
# Outline: as §1
# [6] = target: Gal(b1-3)GalNAc(b1-3)Gal(a1-4)Gal(b1-4)Glc
# Outline: as §1
# [7] = target: Gal(b1-3)GalNAc(b1-4)Gal(b1-4)Glc
# Outline: as §1
# [8] = target: Gal(b1-3)GalNAc(b1-4)[Neu5Ac(a2-3)]Gal(b1-4)Glc
# Outline: as §1
# [9] = target: Gal(b1-3)GlcNAc
# Outline: as §1
# [10] = target: Gal(b1-3)GlcNAc(a1-3)Gal(b1-4)GlcNAc
# Outline: as §1
# [11] = target: Gal(b1-3)GlcNAc(a1-6)Gal(b1-4)GlcNAc
# Outline: as §1
# [12] = target: Gal(b1-3)GlcNAc(b1-2)Man
# Outline: as §1
# [13] = target: Gal(b1-3)GlcNAc(b1-2)Man(a1-3)[Gal(b1-3)GlcNAc(b1-2)Man(a1-6)]Man(b1-4)GlcNAc(b1-4)GlcNAc
# Outline: as §1
# [14] = target: Gal(b1-3)GlcNAc(b1-2)Man(a1-3)[Gal(b1-3)GlcNAc(b1-2)Man(a1-6)]Man(b1-4)GlcNAc(b1-4)[Fuc(a1-6)]GlcNAc
# Outline: as §1
# [15] = target: Gal(b1-3)GlcNAc(b1-2)Man(a1-3)[GlcNAc(b1-4)][Gal(b1-3)GlcNAc(b1-2)Man(a1-6)]Man(b1-4)GlcNAc(b1-4)GlcNAc
# Outline: as §1
# [16] = target: Gal(b1-3)GlcNAc(b1-2)[Gal(b1-3)GlcNAc(b1-6)]Man(a1-6)[Gal(b1-3)GlcNAc(b1-2)Man(a1-3)]Man(b1-4)GlcNAc(b1-4)GlcNAc
# Outline: as §1
# [17] = target: Gal(b1-3)GlcNAc(b1-3)Gal(b1-3)GlcNAc
# Outline: as §1
# [18] = target: Gal(b1-3)GlcNAc(b1-3)Gal(b1-4)Glc
# Outline: as §1
# [19] = target: Gal(b1-3)GlcNAc(b1-3)Gal(b1-4)GlcNAc
# Outline: as §1
# [20] = target: Gal(b1-3)GlcNAc(b1-3)Gal(b1-4)GlcNAc(b1-2)Man(a1-3)[Gal(b1-3)GlcNAc(b1-3)Gal(b1-4)GlcNAc(b1-2)Man(a1-6)]Man(b1-4)GlcNAc(b1-4)GlcNAc
# Outline: as §1
# [21] = target: Gal(b1-3)GlcNAc(b1-3)Gal(b1-4)GlcNAc(b1-2)[Gal(b1-3)GlcNAc(b1-3)Gal(b1-4)GlcNAc(b1-6)]Man(a1-6)[Gal(b1-3)GlcNAc(b1-3)Gal(b1-4)GlcNAc(b1-2)Man(a1-3)]Man(b1-4)GlcNAc(b1-4)[Fuc(a1-6)]GlcNAc
# Outline: as §1
# [22] = target: Gal(b1-3)GlcNAc(b1-3)Gal(b1-4)GlcNAc(b1-3)Gal(b1-4)GlcNAc(b1-2)[Gal(b1-3)GlcNAc(b1-3)Gal(b1-4)GlcNAc(b1-3)Gal(b1-4)GlcNAc(b1-6)]Man(a1-6)[Gal(b1-3)GlcNAc(b1-3)Gal(b1-4)GlcNAc(b1-3)Gal(b1-4)GlcNAc(b1-2)Man(a1-3)]Man(b1-4)GlcNAc(b1-4)[Fuc(a1-6)]GlcNAc
# Outline: as §1
# [23] = target: Gal(b1-3)GlcNAc(b1-3)Gal(b1-4)GlcNAc(b1-6)[Gal(b1-3)GlcNAc(b1-3)]Gal(b1-4)Glc
# Outline: as §1
# [24] = target: Gal(b1-3)GlcNAc(b1-3)Gal(b1-4)[Fuc(a1-3)]GlcNAc
# Outline: as §1
# [25] = target: Gal(b1-3)GlcNAc(b1-3)Gal(b1-4)[Fuc(a1-3)]GlcNAc(b1-6)[Gal(b1-3)GlcNAc(b1-3)]Gal(b1-4)Glc
# Outline: as §1
# [26] = target: Gal(b1-3)GlcNAc(b1-3)GalNAc
# Outline: as §1
# [27] = target: Gal(b1-3)GlcNAc(b1-6)Gal(b1-4)GlcNAc
# Outline: as §1
# [28] = target: Gal(b1-3)GlcNAc(b1-6)GalNAc
# Outline: as §1
# [29] = target: Gal(b1-3)GlcNAc(b1-6)[Gal(b1-3)]GalNAc
# Outline: as §1
# [30] = target: Gal(b1-3)GlcNAc6S
# Outline: as §1
# [31] = target: Gal(b1-3)[Fuc(a1-4)]GlcNAc
# Outline: as §1
# [32] = target: Gal(b1-3)[Fuc(a1-4)]GlcNAc(b1-2)Man
# Outline: as §1
# [33] = target: Gal(b1-3)[Fuc(a1-4)]GlcNAc(b1-2)Man(a1-3)[Gal(b1-3)[Fuc(a1-4)]GlcNAc(b1-2)Man(a1-6)]Man(b1-4)GlcNAc(b1-4)GlcNAc
# Outline: as §1
# [34] = target: Gal(b1-3)[Fuc(a1-4)]GlcNAc(b1-2)Man(a1-3)[Gal(b1-3)[Fuc(a1-4)]GlcNAc(b1-2)Man(a1-6)]Man(b1-4)GlcNAc(b1-4)[Fuc(a1-6)]GlcNAc
# Outline: as §1
# [35] = target: Gal(b1-3)[Fuc(a1-4)]GlcNAc(b1-3)Gal(b1-3)[Fuc(a1-4)]GlcNAc
# Outline: as §1
# [36] = target: Gal(b1-3)[Fuc(a1-4)]GlcNAc(b1-3)Gal(b1-4)GlcNAc
# Outline: as §1
# [37] = target: Gal(b1-3)[Fuc(a1-4)]GlcNAc(b1-3)Gal(b1-4)[Fuc(a1-3)]GlcNAc
# Outline: as §1
# [38] = target: Gal(b1-3)[Fuc(a1-4)]GlcNAc(b1-6)GalNAc
# Outline: as §1
# [39] = target: Gal(b1-3)[GlcNAc(b1-6)]GalNAc
# Outline: as §1
# [40] = target: Gal(b1-3)[Neu5Ac(a2-6)]GalNAc
# Outline: as §1
# [41] = target: Gal(b1-3)[Neu5Ac(a2-6)]GlcNAc(b1-4)Gal(b1-4)Glc
# Outline: as §1
# [42] = target: Gal(b1-3)[Neu5Ac(a2-6)]GlcNAc(b1-6)Gal(b1-4)Glc
# Outline: as §1
# [43] = target: Gal(b1-3)[Neu5Ac(b2-6)]GalNAc
# Outline: as §1
# [44] = target: Gal(b1-4)Gal
# Outline: as §1
# [45] = target: Gal(b1-4)GalNAc(a1-3)[Fuc(a1-2)]Gal(b1-4)GlcNAc
# Outline: as §1
binder,measurement,setting,value
B1,glycan array binding signal (z-score),[1],-0.266
same,glycan array binding signal (z-score),[2],-0.089
same,glycan array binding signal (z-score),[3],0.169
same,glycan array binding signal (z-score),[4],0.617
same,glycan array binding signal (z-score),[5],-0.258
same,glycan array binding signal (z-score),[6],-0.263
same,glycan array binding signal (z-score),[7],-0.26
same,glycan array binding signal (z-score),[8],-0.269
same,glycan array binding signal (z-score),[9],-0.258
same,glycan array binding signal (z-score),[10],-0.252
same,glycan array binding signal (z-score),[11],-0.251
same,glycan array binding signal (z-score),[12],0.558
same,glycan array binding signal (z-score),[13],-0.259
same,glycan array binding signal (z-score),[14],-0.259
same,glycan array binding signal (z-score),[15],-0.244
same,glycan array binding signal (z-score),[16],-0.242
same,glycan array binding signal (z-score),[17],-0.268
same,glycan array binding signal (z-score),[18],-0.266
same,glycan array binding signal (z-score),[19],-0.268
same,glycan array binding signal (z-score),[20],-0.257
same,glycan array binding signal (z-score),[21],-0.231
same,glycan array binding signal (z-score),[22],-0.232
same,glycan array binding signal (z-score),[23],-0.246
same,glycan array binding signal (z-score),[24],-0.26
same,glycan array binding signal (z-score),[25],-0.24
same,glycan array binding signal (z-score),[26],-0.248
same,glycan array binding signal (z-score),[27],-0.247
same,glycan array binding signal (z-score),[28],-0.246
same,glycan array binding signal (z-score),[29],-0.252
same,glycan array binding signal (z-score),[30],-0.263
same,glycan array binding signal (z-score),[31],-0.261
same,glycan array binding signal (z-score),[32],-0.231
same,glycan array binding signal (z-score),[33],-0.139
same,glycan array binding signal (z-score),[34],-0.227
same,glycan array binding signal (z-score),[35],-0.27
same,glycan array binding signal (z-score),[36],-0.275
same,glycan array binding signal (z-score),[37],-0.266
same,glycan array binding signal (z-score),[38],-0.238
same,glycan array binding signal (z-score),[39],-0.265
same,glycan array binding signal (z-score),[40],-0.264
same,glycan array binding signal (z-score),[41],-0.258
same,glycan array binding signal (z-score),[42],-0.278
same,glycan array binding signal (z-score),[43],-0.268
same,glycan array binding signal (z-score),[44],-0.238
same,glycan array binding signal (z-score),[45],-0.268
